Measurements as given in the supplement of paper PMC11417369.
This is one part of the list.

test system: PF3D7_0420300 AP2 domain 1 (GST-tagged); test: gcPBM binding intensity (ln(normalized median fluorescence intensity)); higher = stronger DNA binding
In short: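 An Agilent 4 × 180k array carrying primer-extended double-stranded 36-bp intergenic genomic probes and negative controls received GST-tagged P. falciparum DNA-binding domains expressed in E. coli, about 25 μg on average, for 1 h. The binding buffer contained 1× PBS, 1% milk, 0.2 mg/ml BSA, 0.5% salmon testes DNA and 0.03% Triton X-100. Binding intensity is the top Masliner-normalised natural-log median intensity across replicate spots of either probe orientation, read after Alexa488 anti-GST antibody staining and a 488 nm scan.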

Row | Sequence | gcPBM binding intensity (ln)
1 | AACATATATATAATATGTACATAATATATATAAATG [XGTACX_site1161] | 9.28
2 | ACATATATTTCAAAGTGTACGCACAATTTTTTTTAC [XGTACX_site6166] | 9.24
3 | TTAGTTTCCCAAATATGTACATAAATATAAATCATA [XGTACX_site2746] | 8.95
4 | ATTTCAACAAATATAACACACAATGGATAAGAATAA [CACACA_site1974] | 9.7
5 | TTATTATTTTTTAACACACACATATATATTATATCT [CACACA_site4906] | 9.73
6 | GTAAGAACACTTTTGTGGTTACTTAAAAGTGTATAT [GTGCAC_negctrl_site422] | 9.05
7 | TGCTTATATGTTGTTACACACTAAAATAGTTAGATA [CACACA_site1277] | 9.39
8 | AATACAGTTAGAGAAAGTACACAACTAATATACATA [XGTACX_site8814] | 9.37
9 | AAAGAAGGATAATAATGTACAAGCAAAAAAATAAAA [XGTACX_site466] | 9.61
10 | AATATGTGAATATAATCACACACAATACGGAAACAC [CACACA_site8875] | 10.1
11 | AAATAATTATTTATCACACATATGTATTTATATATA [CACACA_site4589] | 9.31
12 | CTTTTTTTAATGATAACACACATGTTGTGCATAGAC [CACACA_site3270] | 9.32
13 | ATTAACACATTTAAGTGTACATATATAAATATATAT [XGTACX_site7098] | 9.19
14 | TATACATTATTATTATGTACTTAAATATATATTATA [XGTACX_site5173] | 9.07
15 | GGAACGTATATTTTCACACACTCTCAAAAGTACAAG [CACACA_site2301] | 9.41
16 | GAAACAAAATTATTTTGTACATATGACTGTAGATAT [XGTACX_site972] | 9.21
17 | ATATAACTCAAGGGCACACATATACCTTTCCTTTTT [CACACA_site4390] | 9.5
18 | TGTGCACGTTCTGTGACACACATTTAAATGTGCTTA [CACACA_site176] | 9.25
19 | ATATATATATATAGTTGTACTTAATTTTATATGTTA [XGTACX_site5256] | 9.4
20 | TGTTGTATATCTCTATATAGCTATATTGTATATATA [TGCATGCA_negctrl_site323] | 9.4
21 | TATATTATTTATTAGACACACATTATTAAAATATTT [CACACA_site4737] | 9.19
22 | AAACTTATAAAAAGTAGTACCATAAAATAATACATA [XGTACX_site6523] | 9.37
23 | TTTTACAAATATTACTGTACACATTTTCATATAATT [XGTACX_site17] | 9.49

Row | Sequence | gcPBM binding intensity (ln)
24 | CCTTGATATATATAAAGTACATATATATATATATAT [XGTACX_site4325] | 9.01
25 | GTGAAATTATTTCCGTGTACACATAAATATATATTT [XGTACX_site3989] | 9.35
26 | ATTTTGTTATGAAACACACACATATAAATATAAATA [CACACA_site7679] | 9.57
27 | AATACACGCAGACACACACACAAAAAAAAAAAAAAA [CACACA_site6384] | 9.61
28 | AATTGTGCATTATATTGTACACGTGTTGTATATATT [XGTACX_site975] | 9.52
29 | TTGAATATGGTTACATGTACGTATCAATATTTTTTA [XGTACX_site4247] | 9.06
30 | TATATAAAACATGGGTGTACCAACATAAATCATATA [XGTACX_site2320] | 9.52
31 | AAAAAAAAAAATCGCTGTACTTCTAAAGGTGTGTTA [XGTACX_site843] | 9.31
32 | CAAACAAACGGACACACACACACACCCAAAAATGAT [CACACA_site5363] | 10.1
33 | AGTTTTATATAAGCTTGTACTTAATATTATTAAGTA [XGTACX_site5919] | 9.19
34 | ACGGACTTAAAATACACACACACCAAAAAAAAAAAA [CACACA_site7304] | 9.86
35 | TTTGATAAATTATACACACACAATATATATAAAATA [CACACA_site2023] | 9.82
36 | AATAATATATAATAATGTACAAAAAAAAAAAAAAAA [XGTACX_site4158] | 9.06
37 | AAGCTTTGGTGTTATGCATGCAATTAAACTATTAGT [TGCATGCA_site277] | 9.03
38 | TTTTATTTTTTAGTAGTACACACTTTTTGTACCTTT [CACACA_site599] | 9.41
39 | AAATAATACCAAATGTGTACTTATTTCACTAATAGA [XGTACX_site7571] | 9.3
40 | GGAATAATAAAATTATGTACATAAGAATCATATACT [XGTACX_site6810] | 9.39
41 | ATATATACTTATATTTGTACACAAAGGTATCTCTAG [XGTACX_site3805] | 9.2
42 | CATATATAAATATGTATGCACTTTAACAAAATGTAT | 9.13
43 | ATTCCACCTTAAAACTGTACTTTCTCAATCTTTTAT [XGTACX_site796] | 9.43
44 | ATATTTATTTATATGTGTACTTATGTTTATATAAAA [XGTACX_site4250] | 9.33
45 | ATTATGTTATATACACGTACGTGTGCTTTATAATTA [XGTACX_site2728] | 9.45
46 | GGAATTATAATAAATGGTACACATAAAAAAAAAAAA [XGTACX_site8343] | 9.27

Row | Sequence | gcPBM binding intensity (ln)
47 | ATAAAGTAGATATTTTGTACGCAGGTTGTATATATT [XGTACX_site1464] | 9.31
48 | TACTTTACTAATATATATAGGAGAGTATACATGAAA [CACACA_negctrl_site63] | 9.17
49 | TAATAAATAGGACACACACACATATATATATATTAT [CACACA_site4891] | 10.1
50 | TATTTTAATTAATATACACACGCTTATATATATATA [CACACA_site7909] | 9.38
51 | TATTATATATATAACTGTACGTTTATAATATAAAAA [XGTACX_site3778] | 9
52 | TTTCTTTTTTTTTTTTGTACATATTTTAATTATTTT [XGTACX_site8676] | 9.4
53 | TACAAACTATGATGCACACATATATATCTGTATCCA [CACACA_site4809] | 9.44
54 | AGTGTTAAAAATGAGGGTACATATAAAATACAGTTC [XGTACX_site457] | 9.58
55 | ACAGGATTGGTTCAAACACACATATTATATGACTAT [CACACA_site4536] | 9.4
56 | TAATCATTTTAGCTTACACACAAAATTTGGTTATAA [CACACA_site5604] | 9.49
57 | ATGGAATTTTTAGAATATGGATAATGTTACTTAAGT [CACACA_negctrl_site494] | 9.14
58 | AAAAACCATGGGCACACACACATAATATATAATATA [CACACA_site1425] | 10
59 | TATATCGTTAATTATACACACATAAAATTAAACTTT [CACACA_site1274] | 9.39
60 | GTTATATATATATATATATATATATATATTTTTTTT [GTGCAC_negctrl_site597] | 9.03
61 | TAAAAAAAGGAAAACATACAATTCTATTTTTCAATA [CACACA_negctrl_site474] | 9.04
62 | AAATTAAAAAAGAATATACACACCAAAACTGTTTGT [CACACA_site958] | 9.43
63 | TATAATAATACTTATTGTACGATTAGCTTAATTCGT [XGTACX_site15] | 9.01
64 | TATATAAATAGATACACACATACATACATACATACA [CACACA_site260] | 9.68
65 | ACCATACATACATACACACACACACGCATATTTATA [CACACA_site7386] | 10.4
66 | TAATTTTAAATATCTTCACACATTATATTTTTATAT [CACACA_site5411] | 9.23
67 | AAGGTGGAAACAATTACACACACACTAATAAAAAAA [CACACA_site9051] | 10
68 | AAGGGTTATTTGATATGTACTTATATATATATATAA [XGTACX_site1659] | 9.26
69 | AAGTACAAATTTAATAAAAATGAAACAAATATGTAT [TGCATGCA_negctrl_site94] | 9.43

Row | Sequence | gcPBM binding intensity (ln)
70 | AAAGATTGCGATGGTTGTACTTTTCTATATTTTTTT [XGTACX_site3492] | 9.47
71 | CTAAAATACGAACACACACACACATATAAATAAATA [CACACA_site7872] | 10.3
72 | TATACTTCTTATTAAATGAGTAGTATATATTATATA [TGCATGCA_negctrl_site299] | 8.98
73 | CTATTTCATAAACACACACACACAAACAAACATATA [CACACA_site8234] | 10.4
74 | ATTTAAAAAAGAAAGGTGCATTTCAATAATGTAAAA [GTGCAC_site9585] | 9.13
75 | TCATCTTTTATATGTTGTACGTATTTTCATTTATAT [XGTACX_site4855] | 9.55
76 | TTGATATTTTTTTTATGTACACATGTTCATATTTTT [XGTACX_site8095] | 9.43
77 | AAGTAGTGTTAATACTGTACTTATATTTTTTATTAT [XGTACX_site8264] | 9.22
78 | TCACATATTATCTTTACACACTATAAATAAGTTTTA [CACACA_site7335] | 9.41
79 | ATAATTTGATGGTTAACACACATATAGATTATAGAT [CACACA_site7200] | 9.49
80 | TTTTTTTCTTTTTGAGGTACGCATTATTTTATTTGT [XGTACX_site6996] | 9.1
81 | TTATTATATATATCTCGTACGTGTATACGCCTACCA [XGTACX_site8375] | 9.15
82 | TGTTATATTTCAAATTGTACTAATCTAATTAATAAA [XGTACX_site604] | 8.82
83 | AAAAAAATGAAACACACACACACATATATATATATA [CACACA_site1043] | 9.93
84 | ACAAAGTTTATAGAACGTACATACTTACACATATTT [XGTACX_site556] | 9.3
85 | AAACAATTACACATATGTATGTATATATATATATAT [TGCATGCA_negctrl_site536] | 9.25
86 | TGGCAAAATAGGCACACACACATATACATATATATT [CACACA_site1059] | 9.89
87 | ATATTATAGTATATAACACACATTTTTCATAACACT [CACACA_site6331] | 9.59
88 | TATATAATTAAAATAACACACATATATAAAAATATA [CACACA_site2990] | 9.58
89 | GTATATATATTTCTTTAATAATTAAATTATAAATAT [CACACA_negctrl_site640] | 9.05
